Source: the supplement of paper PMC8728848
The list shows a part of the results.

How the values were obtained:
Assay in all cases: glycan array binding signal (z-score within array); higher = stronger binding
Conditions in all cases: glycan notation: IUPAC condensed, linker removed
[1] = target: GlcNAc(b1-3)Gal(b1-4)Glc
Outline: (§1)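 Glycan array binding is given as a within-array Z-score, which can be read as non-binding when negative. The arrays, 3228 of them, came from the Consortium for Functional Glycomics database and were retained only where the protein sequence was available. Z-scores were averaged across arrays of the same protein sequence at different concentrations or buffers and across linkers.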

[2] = target: GlcNAc(b1-3)Gal(b1-4)GlcNAc
Outline: as §1

[3] = target: GlcNAc(b1-3)Gal(b1-4)GlcNAc(b1-2)Man(a1-3)[GlcNAc(b1-3)Gal(b1-4)GlcNAc(b1-2)Man(a1-6)]Man(b1-4)GlcNAc(b1-4)GlcNAc
Outline: as §1

[4] = target: GlcNAc(b1-3)Gal(b1-4)GlcNAc(b1-2)Man(a1-3)[GlcNAc(b1-3)Gal(b1-4)GlcNAc(b1-2)Man(a1-6)]Man(b1-4)GlcNAc(b1-4)[Fuc(a1-6)]GlcNAc
Outline: as §1

[5] = target: GlcNAc(b1-3)Gal(b1-4)GlcNAc(b1-2)[GlcNAc(b1-3)Gal(b1-4)GlcNAc(b1-6)]Man(a1-6)[GlcNAc(b1-3)Gal(b1-4)GlcNAc(b1-2)Man(a1-3)]Man(b1-4)GlcNAc(b1-4)GlcNAc
Outline: as §1

[6] = target: GlcNAc(b1-3)Gal(b1-4)GlcNAc(b1-3)Gal(b1-4)GlcNAc
Outline: as §1

[7] = target: GlcNAc(b1-3)Gal(b1-4)GlcNAc(b1-3)Gal(b1-4)GlcNAc(b1-2)Man(a1-3)[GlcNAc(b1-3)Gal(b1-4)GlcNAc(b1-3)Gal(b1-4)GlcNAc(b1-2)Man(a1-6)]Man(b1-4)GlcNAc(b1-4)GlcNAc
Outline: as §1

[8] = target: GlcNAc(b1-3)Gal(b1-4)GlcNAc(b1-3)Gal(b1-4)GlcNAc(b1-2)Man(a1-3)[GlcNAc(b1-3)Gal(b1-4)GlcNAc(b1-3)Gal(b1-4)GlcNAc(b1-2)Man(a1-6)]Man(b1-4)GlcNAc(b1-4)[Fuc(a1-6)]GlcNAc
Outline: as §1

[9] = target: GlcNAc(b1-3)Gal(b1-4)GlcNAc(b1-3)Gal(b1-4)GlcNAc(b1-2)[GlcNAc(b1-3)Gal(b1-4)GlcNAc(b1-3)Gal(b1-4)GlcNAc(b1-6)]Man(a1-6)[GlcNAc(b1-3)Gal(b1-4)GlcNAc(b1-3)Gal(b1-4)GlcNAc(b1-2)Man(a1-3)]Man(b1-4)GlcNAc(b1-4)[Fuc(a1-6)]GlcNAc
Outline: as §1

[10] = target: GlcNAc(b1-3)Gal(b1-4)GlcNAc(b1-3)Gal(b1-4)GlcNAc(b1-3)Gal(b1-4)GlcNAc(b1-2)Man(a1-3)[GlcNAc(b1-3)Gal(b1-4)GlcNAc(b1-3)Gal(b1-4)GlcNAc(b1-3)Gal(b1-4)GlcNAc(b1-2)Man(a1-6)]Man(b1-4)GlcNAc(b1-4)GlcNAc
Outline: as §1

[11] = target: GlcNAc(b1-3)Gal(b1-4)GlcNAc(b1-3)Gal(b1-4)GlcNAc(b1-3)Gal(b1-4)GlcNAc(b1-2)Man(a1-3)[GlcNAc(b1-3)Gal(b1-4)GlcNAc(b1-3)Gal(b1-4)GlcNAc(b1-3)Gal(b1-4)GlcNAc(b1-2)Man(a1-6)]Man(b1-4)GlcNAc(b1-4)[Fuc(a1-6)]GlcNAc
Outline: as §1

[12] = target: GlcNAc(b1-3)Gal(b1-4)GlcNAc(b1-3)Gal(b1-4)GlcNAc(b1-3)Gal(b1-4)GlcNAc(b1-2)[GlcNAc(b1-3)Gal(b1-4)GlcNAc(b1-3)Gal(b1-4)GlcNAc(b1-3)Gal(b1-4)GlcNAc(b1-6)]Man(a1-6)[GlcNAc(b1-3)Gal(b1-4)GlcNAc(b1-3)Gal(b1-4)GlcNAc(b1-3)Gal(b1-4)GlcNAc(b1-2)Man(a1-3)]Man(b1-4)GlcNAc(b1-4)[Fuc(a1-6)]GlcNAc
Outline: as §1

[13] = target: GlcNAc(b1-3)Gal(b1-4)GlcNAc(b1-3)Gal(b1-4)GlcNAc(b1-3)Gal(b1-4)GlcNAc(b1-3)Gal(b1-4)GlcNAc(b1-2)Man(a1-3)[GlcNAc(b1-3)Gal(b1-4)GlcNAc(b1-3)Gal(b1-4)GlcNAc(b1-3)Gal(b1-4)GlcNAc(b1-3)Gal(b1-4)GlcNAc(b1-2)Man(a1-6)]Man(b1-4)GlcNAc(b1-4)GlcNAc
Outline: as §1

[14] = target: GlcNAc(b1-3)Gal(b1-4)GlcNAc(b1-3)Gal(b1-4)GlcNAc(b1-3)Gal(b1-4)GlcNAc(b1-3)Gal(b1-4)GlcNAc(b1-2)Man(a1-3)[GlcNAc(b1-3)Gal(b1-4)GlcNAc(b1-3)Gal(b1-4)GlcNAc(b1-3)Gal(b1-4)GlcNAc(b1-3)Gal(b1-4)GlcNAc(b1-2)Man(a1-6)]Man(b1-4)GlcNAc(b1-4)[Fuc(a1-6)]GlcNAc
Outline: as §1

[15] = target: GlcNAc(b1-3)Gal(b1-4)GlcNAc(b1-3)Gal(b1-4)GlcNAc(b1-3)Gal(b1-4)GlcNAc(b1-3)Gal(b1-4)GlcNAc(b1-2)[GlcNAc(b1-3)Gal(b1-4)GlcNAc(b1-3)Gal(b1-4)GlcNAc(b1-3)Gal(b1-4)GlcNAc(b1-3)Gal(b1-4)GlcNAc(b1-6)]Man(a1-6)[GlcNAc(b1-3)Gal(b1-4)GlcNAc(b1-3)Gal(b1-4)GlcNAc(b1-3)Gal(b1-4)GlcNAc(b1-3)Gal(b1-4)GlcNAc(b1-2)Man(a1-3)]Man(b1-4)GlcNAc(b1-4)[Fuc(a1-6)]GlcNAc
Outline: as §1

[16] = target: GlcNAc(b1-3)Gal(b1-4)GlcNAc(b1-3)Gal(b1-4)GlcNAc(b1-3)GalNAc
Outline: as §1

[17] = target: GlcNAc(b1-3)Gal(b1-4)GlcNAc(b1-3)GalNAc
Outline: as §1

[18] = target: GlcNAc(b1-3)Gal(b1-4)GlcNAc(b1-3)[GlcNAc(b1-3)Gal(b1-4)GlcNAc(b1-3)]GalNAc
Outline: as §1

B1: Cohesin-mDCIR (Macaca mulatta) (protein)
chain: GLDDLDAVRIKVDTVNAKPGDTVRIPVRFSGIPSKGIANCDFVYSYDPNVLEIIEIEPGDIIVDPNPDKSFDTAVYPDRKIIVFLFAEDSGTGAYAITKDGVFATIVAKVKEGAPNGLSVIKFVEVGGFANNDLVEQKTQFFDGGVNVGDTTEPATPTTPVTTPTTTDDLDAASFQKYSQLLEKMTTKDLVHTTLECVKKNMTTEETAWSCCPKNWKPFSSNCYFISTESASWQKSEKDCARMEAHLLVINTREEQDFIFQNLQEESAYFVGLSDPEGQRHWQWVDRTPYNESSTFWHPHEPSDPDERCVVLNFRKTPKRWGWNDVHCIVHQRSVCEMMKIHLHHHHHH
glycan array binding signal (z-score) [1]: -0.374
glycan array binding signal (z-score) [2]: -0.409
glycan array binding signal (z-score) [3]: -0.413
glycan array binding signal (z-score) [4]: -0.259
glycan array binding signal (z-score) [5]: -0.258
glycan array binding signal (z-score) [6]: -0.419
glycan array binding signal (z-score) [7]: 0.879
glycan array binding signal (z-score) [8]: 0.003
glycan array binding signal (z-score) [9]: -0.323
glycan array binding signal (z-score) [10]: -0.414
glycan array binding signal (z-score) [11]: -0.344
glycan array binding signal (z-score) [12]: -0.341
glycan array binding signal (z-score) [13]: 0.383
glycan array binding signal (z-score) [14]: 0.153
glycan array binding signal (z-score) [15]: -0.335
glycan array binding signal (z-score) [16]: -0.446
glycan array binding signal (z-score) [17]: -0.361
glycan array binding signal (z-score) [18]: -0.436
